Tests used:
Ephrin-A3 (EFNA3) = target: T1, Ephrin-A3 (EFNA3) (Homo sapiens, UniProt P52797); experiment: Direct ELISA binding specificity, Ephrin-A3; settings: biotin-labeled antibody
T1 construct: purchased R&D
T1 sequence (P52797 23-214): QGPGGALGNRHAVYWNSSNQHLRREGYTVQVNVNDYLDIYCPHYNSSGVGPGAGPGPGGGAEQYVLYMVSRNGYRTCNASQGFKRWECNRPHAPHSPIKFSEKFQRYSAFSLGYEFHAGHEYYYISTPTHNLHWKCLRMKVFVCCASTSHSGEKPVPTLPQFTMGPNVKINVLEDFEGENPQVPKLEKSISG
Protocol: Further properties were determined using ELISA to analyze the binding specificity of anti-EFNA4 antibodies huE22 and huE47 to Ephrin-A4 (EFNA4) along with homologous family members Ephrin-A1 (EFNA1) and Ephrin-A3 (EFNA3). Antibody binding was determined by direct ELISA with Ephrin-A1-His, Ephrin-A3-huFc, Ephrin-A4-huFc and Ephrin-A5-huFc (all from R&D) coated on BioOne Microlon (Greiner) plates in PBS overnight at 4° C. Biotin-labeled huE22 and huE47 were incubated on the plate for 2.5 hours at room temperature and Streptavidin HRP was used to develop signal from biotin labeled antibody in the absence of interfering human IgG signal.

HEK293T-EFNA4 cells = experiment: Flow cytometry antibody binding (MCF), HEK293T-EFNA4; design: species or system human; settings: 10 μg/ml antibody; HEK293T-EFNA4, high expression of EFNA4
Protocol: Binding of humanized anti-EFNA4 antibodies huE22 and huE47 was assessed on EFNA4 expressing cells by flow cytometry. Adherent cells were dissociated using TrpLE Express (GIBCO cat #12604-021), neutralized with cell culture media and counted. Cells were plated into a U-bottom 96-well plate (BD Falcon cat #353077) with 5×10e5 cells/100 μL media/well. The plate was centrifuged at 300×g, 5 minutes, 4° C. to pellet cells and the supernatant was discarded. All reagents were kept on ice for the following steps. Each pellet was resuspended in 100 μL primary humanized anti-EFNA4 antibody (huE22 or huE47) or negative control antibody at 10 μg/mL in 3% BSA in PBS. The plate was incubated on ice for 30 minutes. The plate was centrifuged and the cell pellets were washed in 200 μL 3% BSA in PBS. Each cell pellet was resuspended in 100 μL of R-phycoerythrin (PE)-conjugated goat anti-human IgG Fc fragment (Jackson ImmunoResearch cat #109-115-098) that had been diluted 1:50 in 3% BSA in PBS. […] The samples were analyzed by flow cytometry using 5 μL 7AAD (B-D Pharmingen cat #51-68981E) per sample as a viability stain.
Antibody binding was measured in the manner described above for HEK293T parental cells, which express very low levels of EFNA4, and HEK293T-EFNA4 cells which are stable transfectants of HEK293T with a vector that enables high expression of human EFNA4.

HCC202 = experiment: Flow cytometry antibody binding (MCF), HCC202; settings: 10 μg/ml antibody; HCC202, Breast
Protocol: Binding of humanized anti-EFNA4 antibodies huE22 and huE47 was assessed on EFNA4 expressing cells by flow cytometry. Adherent cells were dissociated using TrpLE Express (GIBCO cat #12604-021), neutralized with cell culture media and counted. Cells were plated into a U-bottom 96-well plate (BD Falcon cat #353077) with 5×10e5 cells/100 μL media/well. The plate was centrifuged at 300×g, 5 minutes, 4° C. to pellet cells and the supernatant was discarded. All reagents were kept on ice for the following steps. Each pellet was resuspended in 100 μL primary humanized anti-EFNA4 antibody (huE22 or huE47) or negative control antibody at 10 μg/mL in 3% BSA in PBS. The plate was incubated on ice for 30 minutes. The plate was centrifuged and the cell pellets were washed in 200 μL 3% BSA in PBS. Each cell pellet was resuspended in 100 μL of R-phycoerythrin (PE)-conjugated goat anti-human IgG Fc fragment (Jackson ImmunoResearch cat #109-115-098) that had been diluted 1:50 in 3% BSA in PBS. The plate was incubated on ice for 30 minutes. […] The samples were analyzed by flow cytometry using 5 μL 7AAD (B-D Pharmingen cat #51-68981E) per sample as a viability stain.
Endogenous EFNA4 expressing cancer cell lines were analyzed: Breast cell lines BT-483, HCC202 and MX-1, Chronic Lymphocytic Leukemia (CLL) cell line MEC1 and mantle cell lymphoma (MCL) cell line Z138.

[1] = system: Ovarian-45 (OV45) ovarian cancer PDX; experiment: In vivo efficacy, OV45 ovarian cancer PDX; design: species or system NOD/SCID mice (human tumor PDX)
Protocol: Regressions were also achieved at the 0.09 mg/kg dose level, with tumor regrowth in some animals after 50 days. The 0.036 dose level delayed tumor growth for ˜25 days.

[2] = In vitro stability in mouse plasma (ELISA total ADC / total antibody); format: in vitro ADME; settings: 37° C.; for % total huE22 Ab remaining: Mouse plasma, mean; for % huE22-AcBut-CM remaining: mouse plasma, mean (n=3), total ADC by ELISA
Protocol: Quantitation of the total ADC and total antibody, in plasma samples from pharmacokinetic studies in mice dosed with the ADC was determined using an enzyme-linked immunosorbent assay (ELISA) method. ELISA and liquid chromatography tandem mass spectrometry (LC-MS/MS) methods were also used to quantitate total ADC, total antibody and unconjugated payload from the exploratory toxicology studies in rat and monkey and in the in vitro plasma stability study with the ADC.
Total antibody concentrations could not be determined for the total ADC incubations in human plasma due to ELISA limitations of detection for a human IgG, in human plasma containing human IgG. […] NC=Not calculated; SD=Standard deviation.

B1: huE22 (antibody)
heavy: QVQLVQSGAEVKKPGASVKVSCKASGYTFTGYYIHWVRQAPGQGLEWMGWIYPGNFNTKYNERFKGRVTMTTDTSTSTAYMELRSLRSDDTAVYYCAREDGSPYYAMDYWGQGTSVTVSS[human IgG1 constant region omitted here]
VL: DIVMTQTPLSLSVTPGQPASISCRSSQSLVHSNGNTFLYWYLQKPGQSPQLLIYRVSNRFSGVPDRFSGSGSGTDFTLKISRVEAEDVGVYYCFQATHVPWTFGGGTKVEIK
binding to Ephrin-A3 (EFNA3) (Ephrin-A3 (EFNA3)): but not to EFNA1, EFNA3 or EFNA5
Mean Channel Fluorescence (MCF) (HEK293T-EFNA4 cells): 1521
Mean Channel Fluorescent (MCF) (HCC202): 13.2

B2: huE22-AcBut-CM: huE22 conjugated via lysine residues to AcBut-N-acetyl-γ-calicheamicin dimethyl hydrazide (AcBut-CM) (conjugate)
heavy: QVQLVQSGAEVKKPGASVKVSCKASGYTFTGYYIHWVRQAPGQGLEWMGWIYPGNFNTKYNERFKGRVTMTTDTSTSTAYMELRSLRSDDTAVYYCAREDGSPYYAMDYWGQGTSVTVSS[human IgG1 constant region omitted here]
light: DIVMTQTPLSLSVTPGQPASISCRSSQSLVHSNGNTFLYWYLQKPGQSPQLLIYRVSNRFSGVPDRFSGSGSGTDFTLKISRVEAEDVGVYYCFQATHVPWTFGGGTKVEIKRTVAAPSVFIFPPSDEQLKSGTASVVCLLNNFYPREAKVQWKVDNALQSGNSQESVTEQDSKDSTYSLSSTLTLSKADYEKHKVYACEVTHQGLSSPVTKSFNRGEC
Regression (TTP, Days) or % TGI ([1]; 0.018 mg/kg, OV45 PDX): No activity
regressions, tumor regrowth in some animals after ([1]; 0.09 mg/kg): 50 days
mean tumor volume ([1]; 0.09 mg/kg, Day 60): 118 ± 99
mean tumor volume ([1]; 0.09 mg/kg, Day 0): 145 ± 15
mean tumor volume ([1]; 0.09 mg/kg, Day 3): 240 ± 41
mean tumor volume ([1]; 0.09 mg/kg, Day 8): 147 ± 23
mean tumor volume ([1]; 0.09 mg/kg, Day 21): 15 ± 1
mean tumor volume ([1]; 0.09 mg/kg, Day 33): 0 ± 0
mean tumor volume ([1]; 0.09 mg/kg, Day 39): 0 ± 0
mean tumor volume ([1]; 0.09 mg/kg, Day 46): 0 ± 0
mean tumor volume ([1]; 0.09 mg/kg, Day 53): 30 ± 30
mean tumor volume ([1]; 0.09 mg/kg, Day 67): 256 ± 165
mean tumor volume ([1]; 0.09 mg/kg, Day 74): 423 ± 257
mean tumor volume ([1]; 0.09 mg/kg, Day 81): 443 ± 252
mean tumor volume ([1]; 0.09 mg/kg, Day 88): 743 ± 256
mean tumor volume ([1]; 0.09 mg/kg, Day 96): 1576 ± 208
Regression (TTP, Days) ([1]; 0.09 mg/kg, OV45 PDX): Regression (60) Days
mean tumor volume ([1]; 0.27 mg/kg, Day 60): 0 ± 0
mean tumor volume ([1]; 0.27 mg/kg, Day 109): 0 ± 0
mean tumor volume ([1]; 0.27 mg/kg, Day 0): 153 ± 20
mean tumor volume ([1]; 0.27 mg/kg, Day 3): 177 ± 39
mean tumor volume ([1]; 0.27 mg/kg, Day 8): 35 ± 5
mean tumor volume ([1]; 0.27 mg/kg, Day 21): 0 ± 0
mean tumor volume ([1]; 0.27 mg/kg, Day 33): 0 ± 0
mean tumor volume ([1]; 0.27 mg/kg, Day 39): 0 ± 0
mean tumor volume ([1]; 0.27 mg/kg, Day 46): 0 ± 0
mean tumor volume ([1]; 0.27 mg/kg, Day 53): 0 ± 0
mean tumor volume ([1]; 0.27 mg/kg, Day 67): 0 ± 0
mean tumor volume ([1]; 0.27 mg/kg, Day 74): 0 ± 0
mean tumor volume ([1]; 0.27 mg/kg, Day 81): 0 ± 0
mean tumor volume ([1]; 0.27 mg/kg, Day 88): 0 ± 0
mean tumor volume ([1]; 0.27 mg/kg, Day 96): 0 ± 0
mean tumor volume ([1]; 0.27 mg/kg, Day 102): 0 ± 0
mean tumor volume ([1]; 0.27 mg/kg, Day 116): 0 ± 0
mean tumor volume ([1]; 0.27 mg/kg, Day 123): 0 ± 0
mean tumor volume ([1]; 0.27 mg/kg, Day 131): 0 ± 0
mean tumor volume ([1]; 0.27 mg/kg, Day 137): 0 ± 0
mean tumor volume ([1]; 0.27 mg/kg, Day 141): 0 ± 0
mean tumor volume ([1]; 0.27 mg/kg, Day 158): 0 ± 0
mean tumor volume ([1]; 0.27 mg/kg, Day 166): 0 ± 0
Regression (TTP, Days) ([1]; 0.27 mg/kg, OV45 PDX): Regression (200) Days
tumor growth delay ([1]; 0.036 dose level): ~25 days
% total huE22 Ab remaining ([2]; 1 ug/mL, 0 hours): 100%
% total huE22 Ab remaining ([2]; 1 ug/mL, 8 hours): 105%
% total huE22 Ab remaining ([2]; 1 ug/mL, 24 hours): 126%
% total huE22 Ab remaining ([2]; 1 ug/mL, 48 hours): 109%
% total huE22 Ab remaining ([2]; 1 ug/mL, 72 hours): 101%
% total huE22 Ab remaining ([2]; 1 ug/mL, 168 hours): 102%
% total huE22 Ab remaining ([2]; 50 ug/mL, 0 hours): 100%
% total huE22 Ab remaining ([2]; 50 ug/mL, 8 hours): 111%
% total huE22 Ab remaining ([2]; 50 ug/mL, 24 hours): 117%
% total huE22 Ab remaining ([2]; 50 ug/mL, 48 hours): 97.1%
% total huE22 Ab remaining ([2]; 50 ug/mL, 72 hours): 96.7%
% total huE22 Ab remaining ([2]; 50 ug/mL, 168 hours): 89.9%
% huE22-AcBut-CM remaining ([2]; 1 ug/mL, 0 hours): 100%
% huE22-AcBut-CM remaining ([2]; 50 ug/mL, 0 hours): 100%
